Experimental data from the supplement of paper PMC10338343.
± gives the standard deviation. This is a selection; strong and weak results do not stand in their true shares.

Tested on: MIWI (PIWIL1) piRISC loaded with piRNA #1 (30 nt)
Experiment: pre-steady-state target cleavage rate (min^-1); MIWI and MILI are mouse PIWI proteins and EfPiwi is from a freshwater sponge; tags in brackets are library labels; higher = faster piRNA-guided slicing of the target
Settings: guide: piRNA #1 5'p-UGAGGUAGUAGGUUGUAUAGUAUCCAGAGG; auxiliary factor: 500 nM mouse GTSF1
Method in brief: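 Using HEPES–potassium acetate buffer at 33 °C, 1 nM active affinity-purified piRISC with a single synthetic guide was mixed with 0.1 nM transcribed, DNA-blocked target RNA library for 0–8 or 0–960 min, with or without 500 nM GTSF1 partner protein. Uncleaved targets were sequenced and normalised to depth and to weakly complementary targets, and three trials were pooled with k3 capped at 0.0001 min^-1. A burst-and-steady-state fit gave the pre-steady-state cleavage rate.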

Sequence	pre-steady-state target cleavage rate
GGAGACGAUACUAUACAACCACUACCUCA	0.00948 ± 0.0039
GCUCUGGAUACUAUACAACCUACUACCCUCA	1.32 ± 0.086
GGAGACCUAUCUAUACAACGUACUACCUGA	0.0384 ± 0.0093
GGAGACCUAACUAUACAACCUACUAACUCA	0.84 ± 0.067
GGAGAGGAUACUAUACAACCUACUACCUGA	0.377 ± 0.04
GGAGUGGAUACUAUACAAGCUACUACCUGA	0.267 ± 0.031
CCUCUGGAUAGUAUACAACCUACUACCUGA	0.0128 ± 0.005
GGUCUGGAUACUAUACAACCUUCUACCUGA	0.169 ± 0.036
GGAGACGAUACUAUACAACCUACUAACUCA	0.469 ± 0.048
GCUCUGGAUACUAUACAACCUACAACCACA	0.757 ± 0.098
GGAGACCUAACUAUAACAACCUACUACCUCA	0.25 ± 0.029
GCUCUCGAUACUAUACAACCUACUUCCUCA	0.735 ± 0.042
CCUCUGGAACUAUACAACCUACUACCUCA	2 ± 0.12
GGAGACCUUACAAUACAACCUACUACCACA	0.196 ± 0.035
GGAGUGGAUACUUAUCAACCUACUACCUCA	0.582 ± 0.096
CCUCUCGAUACUAUACUACCUACUACCUCA	1.81 ± 0.12
GGAGACGAAACUAUACAACCUACAACCUCA	0.572 ± 0.064
GGAGACCUAUCUAUACAACCUAGCUACCUCA	0.013 ± 0.0034
GGAGACCUAACUAAACAUCCUACUACCUCA	0.22 ± 0.08
GGAGACCAUACUACACAACCUACUACCUCA	1.73 ± 0.11

Sequence	pre-steady-state target cleavage rate
GGAGUGGAUACUAUACAACCUACUACGCUCA	0.453 ± 0.04
GGAGACCUAUGUAUACAAGCUACUACCUCA	0.118 ± 0.013
GGAGACGAUACUAUACAACCUACUACGCUCA	0.923 ± 0.067
GCUCUGGAUACUAUACUACGUACUACCUCA	0.608 ± 0.054
GGAGUGGAUACUAUAGAACCUACUACCACA	0.0487 ± 0.012
GGUCUGGAUACUAUACAACCUACUAGCUCA	0.136 ± 0.029
GGACUGGAUACUAUAGAACCUACUACCUCA	1.37 ± 0.087
GGAGAGCAUACUAUUCAACCUACUACCUCA	1.78 ± 0.12
GGAGACCUAUGAUAUGUACGUACUUCCUCA	< 0.0001
GGAGACCUAUCUAUACAUCCAACUACCUCA	0.00717 ± 0.0022
GGAGACCUAUCAAUACAACCUACUACCUCA	0.139 ± 0.049
GGUGUGGAUACUAUACAACCAACUACCUCA	0.17 ± 0.016
GGAGACCUAUGUUAUCAACCUACUACCUCA	0.00278 ± 0.0016
GGAGACCUUACAUACAACCUACUACCUCA	0.0616 ± 0.0085
GGAGACGAUACAUAUACAACCUACUACCUCA	1.32 ± 0.084
GGAGUGGAUACUAAACAACCUUCUACCUCA	0.591 ± 0.033
GGAGACCUAACUAUACAACCUAGAACCUCA	0.00779 ± 0.0042
GGAGACCUAUGUAUACAACCUACGUACCUCA	0.0283 ± 0.0054
GGAGACGAUACUAUACAACCUACUUCCUCA	0.456 ± 0.073
